Like-named read-outs stand apart in the source and are kept apart here. No constants are given. Whether binding was seen depends on the method and setting. In cells and extracts the contact can be indirect. Some binding calls cover weakened binding; strength is not graded here. For some assays here: Where a sequence is shown, tags or fusion partners need not be part of it. One block for each molecule: values may come before it.
Experiments:
Cks1-HA3 (S. cerevisiae) [1] = target: T1, Cks1-HA3 (S. cerevisiae) (UniProt P20486); test: co-IP; HA3-tagged bait precipitated with anti-HA magnetic matrix from extracts of exponentially growing or rapamycin-treated yeast cells (also mpk1Δ, cdc55Δ genotypes in Figure 4a); lysis buffer 50 mM TRIS pH 7.5, 1 mM EDTA, 150 mM NaCl, 0.5% NP40; immunoblot with anti-HA, anti-Sic1 or anti-myc
T1 sequence: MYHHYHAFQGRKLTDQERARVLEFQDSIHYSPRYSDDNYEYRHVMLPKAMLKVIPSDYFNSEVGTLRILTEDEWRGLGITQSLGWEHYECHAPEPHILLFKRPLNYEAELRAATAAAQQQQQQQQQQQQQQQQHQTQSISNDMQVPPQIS

Amino acid sequences for entries named in this document (tags omitted). A change or cut given only in a name is not applied to a line headed by its entry. Chains listed by the source or under a name are the forms on record and can include a tag or linker. Residues count along the entry.
UniProt P43565: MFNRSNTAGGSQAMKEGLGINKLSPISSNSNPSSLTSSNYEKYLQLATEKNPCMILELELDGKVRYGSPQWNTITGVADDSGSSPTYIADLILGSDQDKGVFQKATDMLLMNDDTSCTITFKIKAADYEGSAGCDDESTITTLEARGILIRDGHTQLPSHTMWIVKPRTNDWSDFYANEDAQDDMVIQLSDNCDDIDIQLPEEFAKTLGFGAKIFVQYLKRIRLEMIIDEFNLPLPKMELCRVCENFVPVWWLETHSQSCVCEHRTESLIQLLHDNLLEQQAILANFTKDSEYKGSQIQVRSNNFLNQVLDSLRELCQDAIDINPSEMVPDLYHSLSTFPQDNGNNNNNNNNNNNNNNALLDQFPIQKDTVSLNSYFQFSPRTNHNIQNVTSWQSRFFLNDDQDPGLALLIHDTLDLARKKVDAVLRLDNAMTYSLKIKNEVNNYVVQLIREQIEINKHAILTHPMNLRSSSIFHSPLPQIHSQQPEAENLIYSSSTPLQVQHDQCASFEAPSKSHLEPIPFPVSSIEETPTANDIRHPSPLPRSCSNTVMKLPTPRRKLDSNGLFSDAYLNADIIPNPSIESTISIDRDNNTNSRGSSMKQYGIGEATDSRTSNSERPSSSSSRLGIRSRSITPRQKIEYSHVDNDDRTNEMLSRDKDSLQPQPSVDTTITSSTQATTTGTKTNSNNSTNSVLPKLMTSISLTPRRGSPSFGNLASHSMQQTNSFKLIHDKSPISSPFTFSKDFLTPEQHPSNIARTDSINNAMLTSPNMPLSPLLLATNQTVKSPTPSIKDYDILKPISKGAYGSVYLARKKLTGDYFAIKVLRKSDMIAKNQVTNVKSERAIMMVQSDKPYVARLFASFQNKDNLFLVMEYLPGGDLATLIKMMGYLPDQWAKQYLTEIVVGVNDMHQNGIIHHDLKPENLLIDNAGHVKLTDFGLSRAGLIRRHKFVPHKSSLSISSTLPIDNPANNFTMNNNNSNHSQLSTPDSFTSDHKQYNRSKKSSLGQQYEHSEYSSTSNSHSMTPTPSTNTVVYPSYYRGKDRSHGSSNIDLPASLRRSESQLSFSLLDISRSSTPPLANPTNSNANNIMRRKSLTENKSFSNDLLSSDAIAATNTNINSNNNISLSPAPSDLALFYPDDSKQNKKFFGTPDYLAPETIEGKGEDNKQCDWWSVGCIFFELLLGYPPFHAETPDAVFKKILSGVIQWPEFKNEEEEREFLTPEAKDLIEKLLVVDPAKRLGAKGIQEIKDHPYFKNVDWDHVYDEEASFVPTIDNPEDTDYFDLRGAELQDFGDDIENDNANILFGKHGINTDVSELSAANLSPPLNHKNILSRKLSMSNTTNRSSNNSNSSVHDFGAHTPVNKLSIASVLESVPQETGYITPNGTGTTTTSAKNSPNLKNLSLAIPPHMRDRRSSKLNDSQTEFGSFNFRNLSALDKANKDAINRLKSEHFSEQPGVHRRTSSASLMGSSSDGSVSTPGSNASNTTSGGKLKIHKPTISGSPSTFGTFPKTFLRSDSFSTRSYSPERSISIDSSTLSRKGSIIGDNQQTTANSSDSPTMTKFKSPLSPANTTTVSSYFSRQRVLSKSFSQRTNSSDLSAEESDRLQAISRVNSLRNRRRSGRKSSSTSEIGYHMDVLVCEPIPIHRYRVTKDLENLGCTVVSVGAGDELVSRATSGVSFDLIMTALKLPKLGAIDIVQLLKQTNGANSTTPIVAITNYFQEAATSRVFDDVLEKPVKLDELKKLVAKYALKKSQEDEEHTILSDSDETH
Sic1^150-285-myc13 (P38634, residues 150-284): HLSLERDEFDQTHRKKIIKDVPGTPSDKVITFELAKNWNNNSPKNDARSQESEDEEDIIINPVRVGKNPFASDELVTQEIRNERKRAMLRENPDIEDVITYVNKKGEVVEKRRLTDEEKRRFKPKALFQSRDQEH
Sic1-myc13 (P38634, form named): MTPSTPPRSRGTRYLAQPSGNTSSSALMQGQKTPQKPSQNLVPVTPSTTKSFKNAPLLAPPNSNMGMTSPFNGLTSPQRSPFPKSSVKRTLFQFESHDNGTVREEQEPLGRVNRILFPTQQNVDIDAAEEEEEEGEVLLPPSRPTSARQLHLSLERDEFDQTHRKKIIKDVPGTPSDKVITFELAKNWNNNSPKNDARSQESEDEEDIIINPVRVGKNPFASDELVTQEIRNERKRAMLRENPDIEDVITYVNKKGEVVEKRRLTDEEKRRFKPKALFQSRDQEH
Sic1^150-285-myc13 (T173A) (P38634, form named): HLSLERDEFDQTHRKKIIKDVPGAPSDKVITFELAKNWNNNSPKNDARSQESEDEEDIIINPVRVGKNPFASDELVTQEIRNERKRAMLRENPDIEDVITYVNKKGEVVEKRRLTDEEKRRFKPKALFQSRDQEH
Sic1^T173A-myc13 (P38634, form named): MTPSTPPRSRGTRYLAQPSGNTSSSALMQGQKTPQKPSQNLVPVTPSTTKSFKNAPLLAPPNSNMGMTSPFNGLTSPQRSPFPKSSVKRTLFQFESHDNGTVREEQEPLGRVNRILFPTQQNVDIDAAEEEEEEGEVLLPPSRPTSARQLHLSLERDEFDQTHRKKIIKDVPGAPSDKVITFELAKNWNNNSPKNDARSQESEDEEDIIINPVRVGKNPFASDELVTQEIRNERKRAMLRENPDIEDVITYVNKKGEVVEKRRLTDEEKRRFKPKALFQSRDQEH

Clb5-HA3 (S. cerevisiae) = target: T2, Clb5-HA3 (S. cerevisiae) (UniProt P30283); test: as above
T2 sequence: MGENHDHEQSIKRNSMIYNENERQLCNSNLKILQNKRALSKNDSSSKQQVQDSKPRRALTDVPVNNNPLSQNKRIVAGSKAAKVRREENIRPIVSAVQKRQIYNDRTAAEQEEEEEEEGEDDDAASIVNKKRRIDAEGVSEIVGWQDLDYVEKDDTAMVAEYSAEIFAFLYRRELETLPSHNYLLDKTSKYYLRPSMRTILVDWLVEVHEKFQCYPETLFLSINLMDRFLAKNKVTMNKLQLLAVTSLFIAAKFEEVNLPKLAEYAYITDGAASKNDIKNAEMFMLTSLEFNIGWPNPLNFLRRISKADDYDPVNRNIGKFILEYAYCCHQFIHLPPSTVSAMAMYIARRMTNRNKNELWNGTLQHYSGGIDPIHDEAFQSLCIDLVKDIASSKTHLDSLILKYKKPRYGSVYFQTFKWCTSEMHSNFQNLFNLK

Cln2-HA3 (S. cerevisiae) = target: T3, Cln2-HA3 (S. cerevisiae) (UniProt P20438); test: as above
T3 sequence: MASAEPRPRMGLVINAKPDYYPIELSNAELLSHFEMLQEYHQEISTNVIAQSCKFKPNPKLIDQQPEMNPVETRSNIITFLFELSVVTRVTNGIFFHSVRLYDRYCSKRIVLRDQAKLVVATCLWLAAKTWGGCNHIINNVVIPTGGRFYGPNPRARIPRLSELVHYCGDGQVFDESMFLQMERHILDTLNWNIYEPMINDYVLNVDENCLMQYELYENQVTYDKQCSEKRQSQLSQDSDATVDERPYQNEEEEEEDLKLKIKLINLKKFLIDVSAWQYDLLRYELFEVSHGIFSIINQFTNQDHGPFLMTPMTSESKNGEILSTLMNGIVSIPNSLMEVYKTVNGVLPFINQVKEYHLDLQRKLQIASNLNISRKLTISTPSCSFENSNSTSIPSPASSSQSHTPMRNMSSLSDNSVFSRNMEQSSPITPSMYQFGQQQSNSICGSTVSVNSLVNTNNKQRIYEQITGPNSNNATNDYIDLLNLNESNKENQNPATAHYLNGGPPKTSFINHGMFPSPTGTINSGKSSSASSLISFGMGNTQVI

Cks1-HA3 (S. cerevisiae) [2] = target: T1, Cks1-HA3 (S. cerevisiae); test: as above; remark: listed apart in the source
[3] = target: GST-Rim15 (S. cerevisiae) (UniProt P43565); test: pull-down; plasmid-encoded GST-Rim15 pulled down with glutathione-sepharose beads from extracts of untreated and rapamycin-treated (1 h) rim15Δ cells that co-expressed the HA3-tagged protein; immunoblot with anti-HA and anti-GST
[4] = target: T4, Cln2-myc13 (S. cerevisiae) (UniProt P20438); test: co-IP; Figure 3e: extracts of rapamycin-treated (30 min) WT or sic1^T173A cells with Cln2-myc13 and Cks1-HA3; the legend says Cln2-myc13 was IPed but also IP: anti-HA; immunoblot with anti-myc and anti-HA
T4 sequence: T3 sequence

Molecule: Sic1 (from UniProt P38634 1-284)
binding (Cks1-HA3 (S. cerevisiae) [1]): binds | binding (Clb5-HA3 (S. cerevisiae)): binds | binding (Cln2-HA3 (S. cerevisiae)): no binding

Molecule: Sic1^T173A (from UniProt P38634 1-284)
binding (Clb5-HA3 (S. cerevisiae)): binds | binding (Cln2-HA3 (S. cerevisiae)): no binding

Molecule: Sic1^T173A-myc13 (from UniProt P38634 1-284)
binding (Clb5-HA3 (S. cerevisiae)): binds

B1: Clb5-myc13 (protein, UniProt P30283 1-435)
chain: T2 sequence
binding (Cks1-HA3 (S. cerevisiae) [2]): binds

B2: Clb5-HA3 (protein, UniProt P30283 1-435)
chain: T2 sequence
binding [3]: no binding

B3: Lst7-HA3 (protein, UniProt P53237 1-242)
chain: MSSTVISLAHFCDKHGPRIISVTQSAEKGTLGEELLVPDYPTESYCESCLLQFPEESTRSMRCFIEDVPFITTQYSSIRYQLLNSIIKRAFSEETMIYDNMPFIFFDDLRGLNLVIGFKLYDENARGNERRYCFILTVDSRSHDDSMKMLSEHWNFIIGGFDKMIAYIKNIHKSEFLGKNKTVENNLETLNNNAFIGSYLRANKSKFGRNLVSLTDDKFLFVRIHKWNSFLLHTVMNENKLP
binding [3]: no binding

Further lines, results first:

binding (Clb5-HA3 (S. cerevisiae)): binds
Molecule: Sic1-myc13 (from UniProt P38634 1-284)

binding (Cks1-HA3 (S. cerevisiae) [1]): no binding
Molecule: Sic1^150-285-myc13 (T173A) (from UniProt P38634 150-284) (domain or fragment)

binding (Cks1-HA3 (S. cerevisiae) [1]): binds
Molecule: Sic1^150-285-myc13 (from UniProt P38634 150-284) (domain or fragment)

binding [3]: binds
B4: Cln2-HA3 (protein, UniProt P20438 1-545)
chain: T3 sequence

binding [4]: binds
B5: Cks1-HA3 (protein, UniProt P20486 1-150)
chain: T1 sequence
